# Experimental data taken from the supplement of paper PMC11417369.
# ± gives the standard deviation of the averaged measurements. The list shows a part of the results.
# Test system: PfAP2-G AP2 domain (GST-tagged)
# Assay: gcPBM binding intensity (ln(normalized median fluorescence intensity)); higher = stronger DNA binding
# In short: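 Probes on an Agilent 4 × 180k array were primer-extended, double-stranded and 36 bp long, taken from intergenic genomic regions, with negative controls added. GST-tagged P. falciparum DNA-binding domains from E. coli, about 25 μg on average, were applied to the array for 1 h in 1× PBS containing 1% milk, 0.2 mg/ml BSA, 0.5% salmon testes DNA and 0.03% Triton X-100. Binding intensity, obtained after Alexa488 anti-GST antibody detection and a 488 nm scan, is the highest Masliner-normalised natural-log median intensity across replicate spots of either probe orientation.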
row,Sequence,gcPBM binding intensity (ln)
1,TAAAACAACAAAGAAAATGAAAAAGTAAAAACATAT [CACACA_negctrl_site1049],9.91 ± 0.15
2,TTTTGTTATTTTTTAGTGCATATAAAGGTTGTTAAG,10.2 ± 0.24
3,TTTTGCAATAATGTTGCACACTAAATAGTCATCTAT [CACACA_site4304],10.08 ± 0.071
4,TTGGATAAAAAATATGTACACACATATAGATATCTA [CACACA_site8862],11.4 ± 0.87
5,TGATAAAATGGGGAAATTCATTATATCATATCTTGG [CACACA_negctrl_site789],9.6 ± 0.28
6,ATTATATTAAAATACACACCCAAATATTAAAAAGAT [CACACA_site5613],10.4 ± 0.19
7,TTTGAAATATTAAATGCATGTTAAAACATAAAAATG [TGCATGCA_site680],9.98 ± 0.13
8,TTTCTTCTTCTATTGTGTACGTAAAAAAAAAAAAAA [XGTACX_site772],11.6 ± 0.95
9,GGTAATTTCCTTTTTTGTACTCATAGAAGGATAATA [XGTACX_site89],11.4 ± 0.91
10,ATTATTATATTTATATGTACATAGAAAAAATTAAAT [XGTACX_site2058],11.3 ± 0.72
11,AAAGTGGCCATATATTTTTTTTTTTTTTTCCTTATT [CACACA_negctrl_site485],10.3 ± 0.25
12,AAAAATAAAGGATATACACACTAATTATATATATAT [CACACA_site5550],9.855 ± 0.049
13,AATATTTATAAAGACACACAAACAAAAAGGATAAAA [CACACA_site2985],10.4 ± 0.2
14,TCATTTAAGTAGACGCGTACGGAAATTACGAATCCT [XGTACX_site144],11.1 ± 0.69
15,TCAGATATATATATATAAATATATATTTTGAAATGT [CACACA_negctrl_site686],9.58 ± 0.085
16,TAGTATCCAAGAAAAAGTACTTATTTTAATTTTTTA [XGTACX_site6243],11.2 ± 0.83
17,AGTTTGTTTTTTTTTTTTTTTTCCTGTCACAAACAA [CACACA_negctrl_site1093],10.2 ± 0.26
18,TCTCCACCTCTCTTGGTGCGTTATACCCTCGAGGCT,9.83 ± 0.071
19,TATAACAAAATATTCACACATATAAGTAAATAAAGG [CACACA_site5777],10.04 ± 0.057
20,TCAAAGCACCCATACACACACATATATATATATATA [CACACA_site4317],10.4 ± 0.47
21,GTACGTTACATAAATGTGCACATATTATATGCGAAG,10.9 ± 0.3
22,GTCATATATATATGTACACACATATATATATTTATA [CACACA_site1459],11.3 ± 0.92
23,TTTTTTTTTTGTTGAGTGCAATTATTTGTAAGAAAA,10.2 ± 0.4

row,Sequence,gcPBM binding intensity (ln)
1,AAATTAATATATAAAAGTACCCATATATTTAATATA [XGTACX_site3551],11.1 ± 0.64
2,AAGACTGCACTTTAAGCACACAAATATATTTTTTTT [CACACA_site8337],10.18 ± 0.064
3,AAGAAAAAAATTTAATTAAATGAAATTTTTGAATTA [TGCATGCA_negctrl_site25],9.69 ± 0.099
4,TTCTGACTTGTTATAATTTGTATATCCGAAAAAATT [TGCATGCA_negctrl_site456],10.1 ± 0.16
5,ACTATTATTAAAAATTGTACTTTCTATAAATTTTTT [XGTACX_site7825],11.1 ± 0.62
6,ATTTTGTGTAGTGATGCATGTTATATATATATTTGA [TGCATGCA_site422],10.01 ± 0.078
7,AGAAACATATGGTAGTGTACTGTAAATTTATTCTTT [XGTACX_site8602],11.3 ± 0.77
8,TTTTATTGTTTTTTTTTTTTTTCTTTTTTTTTTTTT [CACACA_negctrl_site1094],9.79 ± 0.39
9,CGTTATTATACACATACACACAGGAATAAAAAATTA [CACACA_site7373],10.2 ± 0.26
10,ATAACATCAGTATTATGTACATATGTAGGTAAATAA [XGTACX_site7066],11.1 ± 0.65
11,TTTTGTTTAATATTCACACATATATATTTTTTATTT [CACACA_site5496],9.82 ± 0.16
12,CTTTTTATTTAGGAGGTGCATGTAATACGGAACATA,10.4 ± 0.41
13,TATGAATAAAAAAGAAGTACAAATTATATGAACGCA [XGTACX_site3018],11.5 ± 0.66
14,AAAAAATACAAACACACACACACACCCATATATATA [CACACA_site3560],10.1 ± 0.27
15,GATCTATACATGGGGACACACATCACTCTATATTTT [CACACA_site3408],11.1 ± 0.59
16,ATTTGTTATATATTCTTTTATGTTAATAATTCGAAT [CACACA_negctrl_site378],9.72 ± 0.071
17,CATACTGTTATAAAATGTACGCATATACACACACAT [XGTACX_site7256],11.4 ± 0.83
18,ATATATATATTTATATGTACGAAATATAAAAAAAAA [XGTACX_site5054],10.9 ± 0.45
19,CTTTTTTTTTTTTTTACACACCCAAATCACATACAT [CACACA_site4051],10.6 ± 0.66
20,GAATAATATATATATTGTACTTTTTATTTATATTAT [XGTACX_site3180],11.3 ± 1
21,AAAATATAATATAATGCACACATAAAACAAAAAAAA [CACACA_site8989],10 ± 0.24
22,AAAAAAAAATTAATATATAAAAGGATATATATATAT [GTGCAC_negctrl_site449],9.77 ± 0.46
23,ATATATATATATATATGTACATATATACATATACAT [XGTACX_site2350],11.1 ± 0.62

row,Sequence,gcPBM binding intensity (ln)
1,ACATATAAATATATTACACACACACTAAAAAAATAA [CACACA_site6209],10.1 ± 0.15
2,CACCTTATAAATACTGCACACATAAAATATATATTA [CACACA_site8908],10.3 ± 0.17
3,CTTATCAAAAAAAAAGCATGCCACAGGCAAAAGGTA [TGCATGCA_site574],9.8 ± 0.2
4,ATCCTTTATTTTTTTTGTACATAAAAATAACTCGAG [XGTACX_site3885],11.1 ± 0.62
5,AAATTACAAATACAAACACACAAATGTTTTTCATTC [CACACA_site3552],9.63 ± 0.18
6,TTTTTCTATAAAAAATGTACATATTTTATGAAGGAA [XGTACX_site821],11.2 ± 0.71
7,TTAAAAAACCTTAGATGTACAGTTATATATAAAATA [XGTACX_site6688],11.4 ± 0.98
8,ATATAAAAATGTGTATGTACACACTTTATTTTTAAT [XGTACX_site5272],11.4 ± 0.74
9,AGGTATCAAAAATATGCATGCAATATTTTATGTAAT [TGCATGCA_site1055],9.81 ± 0.2
10,TGAACACACGAGCACACACACACATCTATATTTATA [CACACA_site6607],10.3 ± 0.2
11,TGGAATAATACGCGTACACACATATATATATTAATA [CACACA_site131],11.8 ± 0.97
12,AAAAATAAATTTAGTTGTACTTTATTATTTTAAATA [XGTACX_site3067],11.2 ± 0.76
13,AATCAATAAATAAAAACATGCATATATATATATATA [TGCATGCA_site438],9.95 ± 0.42
14,TTTTTTTTTTTTTTTTGTACGTATCAAAAAATTTGT [XGTACX_site1023],11.3 ± 1.1
15,ATTTTTTTACTGTAACCATATTTTTCCCTTTTATTC [CACACA_negctrl_site1143],10.21 ± 0.078
16,ATAATATATATATATAGTACATATATATAATATTCT [XGTACX_site2445],10.7 ± 0.71
17,CATTAATAAAAAAAAAGTACAAAAAATATATATATT [XGTACX_site2091],11.4 ± 0.78
18,AAAATAAAAATATTCACACATACAAAAATTATACAA [CACACA_site5136],9.88 ± 0.042
19,ATAGACAGCGCACAAACACACAAACACCCACCCACA [CACACA_site8043],10.5 ± 0.28
20,AGTGATACTAATTTTTGTACGCATAAAAGAATATTC [XGTACX_site6055],11.5 ± 0.88
21,TATATTGATGATGATAGTACGTATGATTAGAAAAAA [XGTACX_site8989],11 ± 0.61
22,AAGAAAAACTTTACGTGTACCAAACATCCTGCCAAC [XGTACX_site598],11.1 ± 0.41
23,AAAAAAAAAAAAATACGTACATACATACCTACATAT [XGTACX_site233],11.5 ± 0.93

row,Sequence,gcPBM binding intensity (ln)
1,TATATATATATGTGTACACAATTTATCTGTATTTAT [CACACA_site5945],11.8 ± 0.93
2,ATATTTCTGTCAAGCACACATAATATTAAAATATGT [CACACA_site4330],10.2 ± 0.28
3,ATTTAGAAAAATAAAACACACATATAGATGTAAATA [CACACA_site7853],9.87 ± 0.099
4,TTAATATGATATATATATATATATATATATATATAT [CACACA_negctrl_site683],9.81 ± 0.51
5,GTAAAAATTTTAAATACATGCAAGCGATTAATATGA [TGCATGCA_site80],9.87 ± 0.17
6,TCATATTATAATGTGAGTACATATAATAAATAAGTT [XGTACX_site2470],11.3 ± 0.95
7,ATGTTTGTCTATAGCTGTACCTATTTATAAAACGTA [XGTACX_site7157],11.2 ± 0.85
8,TTAAATAATATTAAATGTACATATTATTATGATATA [XGTACX_site6189],11.1 ± 0.64
9,TATATATTTAACAATCGTACATATTTACAAATATAA [XGTACX_site2131],11 ± 0.76
10,TTATAACAACTGGAATGATTAACAATAAATATTAAA [CACACA_negctrl_site1723],9.87 ± 0.13
11,GTATATATGTATATATGTACATATATACATTTTGTT [XGTACX_site7320],11.2 ± 0.64
12,CGTTAAAGGGAATGTATACACACGTTTCTCTATGTT [CACACA_site1198],10.2 ± 0.16
13,TATTTTTTTTTCTTTTTATATATAATAATCTTCATT [GTGCAC_negctrl_site80],9.73 ± 0.16
14,AGGAGACTTAAAAAAAGTACAAAAAAAAAAAAAAGC [XGTACX_site1576],11.4 ± 0.93
15,ACAGAAAAAAAACACACACACATAATATACATACAT [CACACA_site1932],10
16,TATACATATATAAATGCATGTTGATATTAATAGTTA [TGCATGCA_site639],9.615 ± 0.049
17,AATTTCATAAATATAACTGAGAATAAATAAACAAAG [GTGCAC_negctrl_site146],9.935 ± 0.078
18,AAAAATAAAATAAAGAAGGAAAATAAAAAAATAAGG [CACACA_negctrl_site1811],10.01 ± 0.035
19,AGGAGGTCAGTTCACAGTACCCAGGAAATCTACGGA [XGTACX_site2552],11.1 ± 0.8
20,AAACATAAGAGACACACACACATATATAAATAAATA [CACACA_site7674],10.1 ± 0.28
